Results published in publication PMC2808332.
No constants are given. Whether binding was seen depends on the method and setting. For part of these data: In cells and extracts the contact can be indirect. Some entries that bind do so weakly or less than the wild type. Tags and fused reporters may be left off the sequences shown. Blank lines part the entries; values can stand above or below the binder they belong to.

Key:
[1] = target: Xpress-tagged NEMO (human) (UniProt Q9Y6K9); experiment: co-IP; Xpress-tagged NEMO and partner co-expressed in HEK-293T; anti-Xpress, protein A/G agarose; binding and washing with 0.5% NP-40 (20 mM Tris-HCl pH 7.5, 137 mM NaCl, 0.5 mM DTT, 10% glycerol, 2 mM EDTA), 4°C
GST-NEMO (human) = GST-NEMO (human) (UniProt Q9Y6K9); experiment: pull-down; GST or GST-NEMO immobilised; lysates of transiently transfected HEK-293T cells applied; washing, SDS-PAGE, immunoblot; only the target purified
[2] = target: NEMO, mammalian two-hybrid fusion (human) (UniProt Q9Y6K9); experiment: two-hybrid; mammalian two-hybrid, CheckMate/Flexi system (Promega) in HEK-293T; pFN10A (activation domain) and pFN11A (binding domain); firefly/Renilla luciferase; partner/NEMO compared with partner/empty vector

binding [1]: binds
binding (GST-NEMO (human)): binds
B1: CALB1 (calbindin D28K), expressed in HEK-293T (protein, UniProt P05937 1-261)
chain: MAESHLQSSLITASQFFEIWLHFDADGSGYLEGKELQNLIQELQQARKKAGLELSPEMKTFVDQYGQRDDGKIGIVELAHVLPTEENFLLLFRCQQLKSCEEFMKTWRKYDTDHSGFIETEELKNFLKDLLEKANKTVDDTKLAEYTDLMLKLFDSNNDGKLELTEMARLLPVQENFLLKFQGIKMCGKEFNKAFELYDQDGNGYIDENELDALLKDLCEKNKQDLDINNITTYKKNIMALSDGGKLYRTDLALILCAGDN

binding [2]: binds
B2: CALB1, mammalian two-hybrid fusion (protein, UniProt P05937 1-261)
chain: B1 chain

binding [1]: binds
binding (GST-NEMO (human)): binds
B3: SENP2-FLAG (protein, UniProt Q9HC62 1-589)
chain: MYRWLVRILGTIFRFCDRSVPPARALLKRRRSDSTLFSTVDTDEIPAKRPRLDCFIHQVKNSLYNAASLFGFPFQLTTKPMVTSACNGTRNVAPSGEVFSNSSSCELTGSGSWNNMLKLGNKSPNGISDYPKIRVTVTRDQPRRVLPSFGFTLNSEGCNRRPGGRRHSKGNPESSLMWKPQEQAVTEMISEESGKGLRRPHCTVEEGVQKEEREKYRKLLERLKESGHGNSVCPVTSNYHSSQRSQMDTLKTKGWGEEQNHGVKTTQFVPKQYRLVETRGPLCSLRSEKRCSKGKITDTETMVGIRFENESRRGYQLEPDLSEEVSARLRLGSGSNGLLRRKVSIIETKEKNCSGKERDRRTDDLLELTEDMEKEISNALGHGPQDEILSSAFKLRITRGDIQTLKNYHWLNDEVINFYMNLLVERNKKQGYPALHVFSTFFYPKLKSGGYQAVKRWTKGVNLFEQEIILVPIHRKVHWSLVVIDLRKKCLKYLDSMGQKGHRICEILLQYLQDESKTKRNSDLNLLEWTHHSMKPHEIPQQLNGSDCGMFTCKYADYISRDKPITFTQHQMPLFRKKMVWEILHQQLL

binding [2]: binds
B4: SENP2, mammalian two-hybrid fusion (protein, UniProt Q9HC62 1-589)
chain: B3 chain
